Among all 52,000 compounds or so, about 4,300 (8.3%) were called active. Cut-off read from the data, not from the text of the source: active = survival mostly below about 52% (no sharp cut-off); inactive = mostly above about 56%. The list shows a part of the results.
tested on: DeltatarO mutant; test: growth inhibition of S. aureus wild type versus tarO mutant, primary screen, teichoic acid synthesis inhibitors, RN4220, OD600 (AID 463173); conditions: OD600, 18 h, hits give low values, screened at 18.75 µg/mL (by protocol)

Structure (SMILES)	survival
CCOc1cc(C(=O)Nc2ccc(-c3nc4ncccc4o3)cc2C)cc(OCC)c1OCC	active: 52%
COc1ccc2[nH]c(=O)c(CN(CCCN3CCOCC3)C(=O)NCc3ccccc3)cc2c1	inactive: 86%
COC(=O)c1c(NC(=O)COc2cc(C)ccc2C(C)C)sc2c1CCC(C)C2 (stereo unspecified)	inactive: 61%
O=C1C(=O)N(c2cccnc2)C(c2ccc(O)cc2)/C1=C(\O)c1ccc(Br)cc1 (stereo unspecified)	inactive: 95%
CC(=O)c1ccc(N2CCN(S(=O)(=O)c3ccc(-c4cc(C)no4)s3)CC2)cc1	active: -5%
COc1ccc(-c2nc3n(n2)C(=O)CC(c2ccc(Cl)cc2)S3)cc1 (stereo unspecified)	inactive: 57%
Cc1ccc(-c2ccc(=O)n(CC(=O)NCc3ccc(F)cc3)n2)cc1	inactive: 92%
CCOC(=O)C1CCN(S(=O)(=O)c2ccc3c(c2)NC(=O)C(C)C(=O)N3)CC1 (stereo unspecified)	inactive: 105%
Cc1ccc2nc3c(cc(C(=O)NC4CCCCC4)c(=N)n3C(C)C)c(=O)n2c1	inactive: 78%
CCOC(=O)c1ccc(NC(=O)CC2NCCNC2=O)cc1 (stereo unspecified)	inactive: 78%
CCn1c2ccccc2c2cc(NC(=O)COc3ccc(C)c(C)c3)ccc21	inactive: 119%
COc1ccc2c(c1)c1c(c(=O)n(-c3ccccc3C)c(=O)n1CC(=O)Nc1c(C)cccc1C)n2C	inactive: 91%
Cc1ccccc1Nc1nn2c(=O)c3ccc(C(=O)N4CCCC(C)C4)cc3nc2s1 (stereo unspecified)	inactive: 95%
O=c1c2[nH]c3ccccc3c2nc(SCc2cccc(F)c2)n1-c1ccccc1	inactive: 54%
O=C(O)CCc1ccc(-c2ccccc2)n1CC(=O)Nc1ccccc1C(F)(F)F	inactive: 60%
COc1ccccc1CNC(=O)CCCCn1c(=O)c2ccccc2n(CC(=O)Nc2cc(Cl)ccc2C)c1=O	inactive: 82%
Cn1c(=O)[nH]c2cc(-c3noc(-c4ccc(F)cc4)n3)ccc21	inactive: 126%
CCn1c(=O)cc(SCC(=O)NCCc2ccc(OC)cc2OC)c2ccccc21	inactive: 60%
COCCCNC(=O)CSc1nc(-c2ccccc2)[nH]c1-c1ccc(C)cc1	inactive: 71%

Structure (SMILES)	survival
CCc1ccc(-n2c(=O)c3c4c(sc3n(CC(=O)NC(C)CC)c2=O)CCCC4)cc1 (stereo unspecified)	inactive: 98%
CCn1c(Cc2ccccc2)nnc1SCC(=O)Nc1ccccc1	inactive: 90%
CCCn1c(=O)c2sccc2n2c(CCCC(=O)Nc3cccc(CC)c3)nnc12	inactive: 99%
CCc1cnc2c(c1SCC(=O)Nc1ccc(C)cc1C)c(=O)n(C)c(=O)n2C	inactive: 86%
Cc1ccc(NC(=O)CCC(=O)N2Cc3ccccc3Oc3ncccc32)cc1	inactive: 49%
COc1cccc(OC)c1C(=O)Nc1ccc2c(c1)N(C(C)=O)CCC2	inactive: 78%
O=C(CCc1ccccc1)NC1CC(=O)N(c2ccccc2)C1 (stereo unspecified)	inactive: 94%
CNc1cc(=O)n(C)c(=O)[nH]1	inactive: 98%
O=C1CC(c2ccc(Cl)cc2)Sc2nc(-c3ccc(F)cc3)nn21 (stereo unspecified)	inactive: 81%
O=C(CC1(c2ccc(Cl)cc2)C(=O)c2ccccc2C1=O)N1CCOCC1	inactive: 79%
CCOc1ccc(CNS(=O)(=O)c2cc(-c3cc(C)no3)ccc2C)cc1OC	inactive: 77%
COc1ccc(-c2cnc(C)o2)cc1S(=O)(=O)Nc1ccc(C)c(N(C)C)c1	inactive: 120%
CC1=NNC(=O)C1CC(=O)N/N=C/C=C/c1ccccc1 (stereo unspecified)	inactive: 74%
CCOC(=O)Cn1c(=O)n(-c2ccccc2OC)c2nc(-c3ccccc3C)nc(C(N)=O)c21	inactive: 79%
Cc1ccccc1C(=O)Nc1nnc(S(=O)(=O)N2CCCCCC2)s1	active: 47%
COC(=O)CC1Oc2ccccc2-n2cc(-c3ccc(Cl)cc3)nc21 (stereo unspecified)	inactive: 69%
Cc1ccc(Cl)cc1N1CCN(C(=O)C2CCN(Cc3nc(-c4cccc(Cl)c4)oc3C)CC2)CC1	active: -8%
COc1ccc(CNC(=O)Cc2csc3nc(-c4ccc(C)cc4)cn23)cc1	inactive: 88%
Cc1cccc(-c2nc(SCC(=O)Nc3ccc4c(c3)OCCO4)c(-c3ccccc3)[nH]2)c1	inactive: 58%

Structure (SMILES)	survival
CCc1nn2c(=O)cc(COC(=O)C(c3ccccc3)c3ccccc3)nc2s1	inactive: 91%
CCOc1ccc2[nH]c(=O)c(CN(C(=S)NCc3ccco3)C3CCCC3)cc2c1	inactive: 100%
Cc1cc(C)cc(N(CC(=O)NCc2ccccc2Cl)S(=O)(=O)c2c(C)noc2C)c1	inactive: 95%
O=C(Cn1nc(-c2ccccc2)ccc1=O)Nc1ccc(N2CCN(C(=O)c3ccccc3)CC2)cc1	inactive: 68%
O=C(c1c[nH]c2c(F)cccc2c1=O)N1CCNCC1	inactive: 54%
CCOc1ccc(NC(=O)Cn2c(=O)n(CCC(=O)NCCc3ccccc3)c(=O)c3ccccc32)cc1	inactive: 95%
CCCn1cc(S(=O)(=O)c2ccc(CC)cc2)c(=O)c2ccccc21	inactive: 87%
Cc1ccc(Cn2c(=O)n(Cc3ccccc3Cl)c(=O)c3ccccc32)cc1	active: 48%
CCCCc1nn2c(=O)cc(COC(=O)c3ccc(NC(=O)C4CCCCC4)cc3)nc2s1	inactive: 91%
Cc1ccc2occ(-c3cc(-c4ccc(Cl)cc4)nc4c3COc3ccccc3-4)c(=O)c2c1	inactive: 86%
Cc1ccc(N(C)C(=O)C2CCCN(c3ncnc4c3nc3n4CCCCC3)C2)cc1C (stereo unspecified)	inactive: 117%
Cc1cccc(C(=O)Nc2ccccc2SCc2cc(=O)c3cccc(C)c3[nH]2)c1	inactive: 84%
Cc1nnc(N2CCN(c3ccccc3F)CC2)c2c1nnn2Cc1ccccc1	inactive: 85%
CCOC(=O)c1ccc(NC(=O)CN2C(=O)COc3ccc(Cl)cc32)cc1	inactive: 75%
CC1=C(C(=O)OC2CCCC2)C(c2ccccc2Cl)CC(=O)N1 (stereo unspecified)	inactive: 70%
Cc1cccc(N2CCN(C3(c4ccccc4)C(=O)c4ccccc4C3=O)CC2C)c1 (stereo unspecified)	inactive: 132%
COc1ccccc1CNC(=O)c1cnn2c(C)c(Cc3ccc(F)cc3)c(C)nc12	inactive: 69%
Cc1ccc(C(c2sc3nc(-c4ccco4)nn3c2O)N2CCN(Cc3ccccc3)CC2)cc1 (stereo unspecified)	inactive: 112%
